# In all, about 310,000 compounds went through this assay and about 18,000 (5.8%) were called active. Inconclusive means that the source gave no clear call. Such entries were picked first, then a sample of the others. The call rests on the fitted dose curve; in most records, active means well fitted inhibition curve with a large enough effect; inconclusive means small, poorly fitted or top-dose-only effect, or another doubt; inactive means no such curve, though single readings can be large or run the other way. Potencies of inconclusive entries are left out as doubtful fits.
# Test: Primary qHTS for delayed death inhibitors of the malarial parasite plastid, 48 hour incubation
# Details: P. falciparum luciferase growth in erythrocytes; series mostly up to 28.7 µM
# Outline: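 Read-out is firefly luciferase luminescence from an integrated reporter in P. falciparum, so falling signal marks reduced parasite growth. Infected erythrocytes were at 2% hematocrit and 0.1% parasitemia (final) in Albumax-supplemented RPMI 1640.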
# Potency means the concentration at half of the fitted maximal effect; tags describe the fitted curve by direction and shape.
row,SMILES,Potency
1,CN1C[C@@H]2C(c3ccc(C(F)(F)F)cc3)C3(c4ccc(C#N)cc4)CC2(C3)[C@H]1c1ccccc1 (stereo partly specified),active: 11.7 µM
2,CCN(CC(=O)Nc1ccc(S(=O)(=O)N2CCCC2)cc1)CC(=O)Nc1cccc(OC)c1,inactive
3,CCn1c(CNc2ccc(OC)cc2)nnc1SCC(=O)c1ccc(OC)cc1,"inconclusive [inhibitor, single point]"
4,CC(=O)c1c(C)[nH]c(C(=O)CSc2nnc(-c3ccco3)o2)c1C,"inconclusive [inhibitor, single point]"
5,COc1ccc(C2=NOC(C(=O)NC3CCCCC3)C2)cc1OC (stereo unspecified),inactive
6,CCOC(=O)c1ccc(-c2nnc(-c3ccc(Cl)cc3Cl)o2)cc1,inactive
7,COc1cccc(-c2cc(C(=O)N3CCN(Cc4ccc5c(c4)OCO5)CC3)on2)c1,inactive
8,CCN(CC)S(=O)(=O)c1cc(C(=O)OCC(=O)c2ccc3c(c2)NC(=O)CO3)ccc1F,"inconclusive [inhibitor, single point]"
9,O=C(COC(=O)c1ccc(S(=O)(=O)NCc2ccco2)cc1)Nc1ccccc1OC(F)F,inactive
10,Oc1c(Br)cc(Br)cc1CN1CCN(Cc2ccccc2)CC1,active: 1.85 µM
11,COc1cc(NC(=O)COC(=O)/C=C/c2ccc(Cl)cc2Cl)cc(OC)c1,inactive
12,CC1=NN(c2ccccc2)C(=O)/C1=C\c1cc(C)n(C)c1C,"inconclusive [inhibitor, single point]"
13,CC(C)c1nc2oc3c(NCC4CCCO4)ncnc3c2c2c1CCC2 (stereo unspecified),active: 1.85 µM
14,CC(=O)c1cc(NC(=O)c2ccccc2)c(=O)oc1C,"inconclusive [inhibitor, single point]"
15,Cc1cccc(NC(=O)COc2coc(CN3CCN(c4ccccc4)CC3)cc2=O)c1,active: 9.28 µM
16,N#CCCn1cc(C(=O)O)c(-c2cccs2)n1,inactive
17,COC(=O)c1cn(Cc2ccccn2)c(=O)c2ccccc12,"inconclusive [inhibitor, partial curve, poor fit]"
18,CCOc1ccc(CCNC(=O)CN2C(=O)NC3(CCCCC3C)C2=O)cc1OCC (stereo unspecified),"inconclusive [inhibitor, single point]"
19,CCN(CC)CCC(c1ccc(N(C)C)cc1)c1c(OC)cc(OC)c2c(-c3ccccc3)cc(=O)oc12 (stereo unspecified),active: 8.28 µM
20,CC(C)[N+](C)(C)CC(O)COc1cccc2ccccc12 (stereo unspecified),active: 6.01 µM
21,Cc1ccccc1NC(=O)CSc1nc2n(n1)CCCCC2,inactive
22,O=C(c1ccc(F)cc1)C1CCN(C(=O)NC2CCCCC2)CC1,"inconclusive [inhibitor, partial curve]"
23,Clc1cccc(-c2ccc3ncnc(NCc4cccs4)c3c2)c1,active: 11.7 µM
24,COc1ccc(OC)c(C(c2nnnn2C2CCCC2)N2CCN(c3ccc(F)cc3)CC2)c1 (stereo unspecified),active: 11.7 µM

row,SMILES,Potency
1,COc1ccccc1CCNC(=O)CSc1nnc2ccc(-c3cccnc3)nn12,"inconclusive [inhibitor, partial curve, poor fit]"
2,Cc1nc2ccc(NC(=O)COc3ccccc3C)cc2s1,inactive
3,CN(C(=O)c1cnccn1)c1nnc(-c2cnccn2)s1,inactive
4,CCn1ncc(Br)c1C(=O)Nc1ccc(Cl)cn1,inactive
5,CC(C)Oc1ccc(S(=O)(=O)N2CCOCC2)cc1NC(=O)C1=COCCO1,"inconclusive [inhibitor, partial curve]"
6,CNC(=S)N(CCc1ccc(OC)c(OC)c1)Cc1cc2c(C)cc(C)cc2[nH]c1=O,"inconclusive [inhibitor, single point]"
7,Cc1cnccc1CN(C)Cc1cn(C)nc1-c1cccc(Cl)c1,"inconclusive [inhibitor, single point]"
8,COc1ccc(C2OC34CCCCC3C(C#N)(C#N)C2(C#N)C(=N)O4)cc1 (stereo unspecified),"inconclusive [inhibitor, full curve, poor fit]"
9,CC1CCCN(C(=O)c2cccc(S(=O)(=O)N3CCCc4ccccc43)c2)C1 (stereo unspecified),"inconclusive [inhibitor, partial curve, poor fit]"
10,O=C(Nc1nnc(SCc2ccc(Cl)cc2)s1)c1ccco1,"inconclusive [inhibitor, partial curve, poor fit]"
11,Cc1ccc(C2CC(c3cccs3)=NN2C(=O)CCl)cc1 (stereo unspecified),active: 13.1 µM
12,CC(NC(=O)Cn1cc(Br)c([N+](=O)[O-])n1)c1ccccc1 (stereo unspecified),"inconclusive [inhibitor, partial curve, poor fit]"
13,CC1Cc2ccccc2N1C(=O)CCS(=O)(=O)c1cccc2nonc12 (stereo unspecified),"inconclusive [inhibitor, partial curve, poor fit]"
14,Cn1c(=O)c2c(nc(N/N=C/c3cccnc3)n2Cc2ccc(F)cc2)n(C)c1=O,"inconclusive [inhibitor, single point]"
15,CCN(CC)C(=O)Cn1cnc2sc(C(=O)N3CCN(c4ccc(F)cc4)CC3)c(C)c2c1=O,"inconclusive [inhibitor, partial curve, poor fit]"
16,CC(=O)c1ccc(NC(=O)CSc2nc(Nc3ccccc3)nc(N3CCOCC3)n2)cc1,"inconclusive [inhibitor, single point]"
17,Fc1ccc(-n2nnnc2-c2cnc(-c3cccs3)nc2C(F)(F)F)cc1,"inconclusive [inhibitor, single point]"
18,CC1C=Cc2ccccc2N1C(=O)c1ccccc1 (stereo unspecified),"inconclusive [inhibitor, single point]"
19,Cc1ccccc1/C=N/N=C1/NC(=O)CCS1,"inconclusive [inhibitor, single point]"
20,O=C(/C=C/c1ccccc1)NC(=S)Nc1ccc2c3c(cccc13)CC2,inactive
21,Cc1cc(C)c2nc(SCC(=O)Nc3ccc(S(=O)(=O)N4CCCC4)cc3)c(C)cc2c1,active: 9.28 µM
22,CC1=C(C(=O)Nc2ccccc2C(=O)N2CCCCC2)SCCO1,"inconclusive [inhibitor, partial curve, poor fit]"
23,O=C(Nc1ccccc1)c1ccc(S(=O)(=O)N2CCCCC2)cc1,"inconclusive [inhibitor, partial curve]"
24,O=C(NCCc1ccc(Cl)cc1)c1ccc2nc[nH]c2c1,inactive

row,SMILES,Potency
1,O=C(NCC1CCCO1)C(c1cccs1)N(Cc1cccs1)C(=O)Cn1nnc(-c2cccs2)n1 (stereo unspecified),"inconclusive [inhibitor, single point]"
2,Cc1ccc([N+](=O)[O-])cc1NC(=O)CSc1n[nH]c(-c2cccnc2)n1,inactive
3,Cc1ccc(S(=O)(=O)NCCSc2nnnn2-c2ccc(C(N)=O)cc2)cc1,"inconclusive [inhibitor, partial curve, poor fit]"
4,Cc1cc(OC(F)F)ccc1NC(=O)Nc1ccc([N+](=O)[O-])cc1,"inconclusive [inhibitor, partial curve]"
5,Cc1ccccc1Cn1ccc(=NCc2ccccc2)cc1,active: 0.738 µM
6,CC1Sc2ccc(S(=O)(=O)N3CCC(C(=O)NCc4ccco4)CC3)cc2NC1=O (stereo unspecified),"inconclusive [inhibitor, single point]"
7,COc1cccc(CC(=O)OCC(=O)NC(Cc2ccccc2)C(C)=O)c1 (stereo unspecified),"inconclusive [inhibitor, single point]"
8,Cn1nc(C(=O)NCc2ccc(F)cc2)cc1C(=O)NCc1ccc(F)cc1,"inconclusive [inhibitor, partial curve, poor fit]"
9,NC(=O)OC[C@@H]1[C@H](NC(=O)/C(=N/OCC(=O)O)c2csc(N)n2)C(=O)N1S(=O)(=O)O,"inconclusive [inhibitor, single point]"
10,Cc1csc2ncnc(NC3CCN(Cc4ccccc4)CC3)c12,"inconclusive [inhibitor, single point]"
11,CCCCCCCC/C=C\CCCCCCCCN,inactive
12,O=C(O)c1ccc(NC2OC[C@@H](O)[C@H](O)[C@H]2O)cc1 (stereo partly specified),"inconclusive [inhibitor, single point]"
13,Cc1cc(C)c(C(=O)CN2C(=O)NC3(CCC(C)CC3)C2=O)cc1C (stereo unspecified),inactive
14,COc1ccc(C2Nc3cc(OC)ccc3-n3cccc32)cc1 (stereo unspecified),"inconclusive [inhibitor, single point]"
15,COc1cc(CN2CCC(CO)(CCOc3ccccc3)CC2)cc(OC)c1,active: 11.7 µM
16,Cc1cc(NC(=O)/C=C/c2ccccc2)c(C(C)C)cc1O,"inconclusive [inhibitor, partial curve, poor fit]"
17,COc1ccc(NC(=O)c2cc(S(=O)(=O)N(Cc3ccccc3)c3ccccc3)ccc2Cl)cn1,"inconclusive [inhibitor, partial curve, poor fit]"
18,Cc1c([N+](=O)[O-])cc(C(=O)Nc2ccc(Cc3ccncc3)cc2)cc1[N+](=O)[O-],active: 13.1 µM
19,COc1ccccc1NC(=O)COC(=O)c1ccc(N2CCCC2=O)cc1,inactive
20,O=C1CS/C(=N\NC(=O)c2ccccc2)N1,"inconclusive [inhibitor, partial curve, poor fit]"
21,Cc1ccc(/C=N/Nc2nnc(Cl)c3ccccc23)cc1,inactive
22,Cc1ccc(Cn2nnc(C(=O)Nc3cccc(C)c3C)c2N)cc1,"inconclusive [inhibitor, partial curve, poor fit]"
23,CCOC(=O)C1CCCN(CCC(=O)Nc2ccc(C)c(C)c2)C1 (stereo unspecified),"inconclusive [inhibitor, partial curve, poor fit]"

# From PubChem BioAssay AID504832 (National Center for Advancing Translational Sciences (NCATS), 2011)
